Results on 42 sequences are retold here after article PMC7819943, “Rice protein-binding microarrays: a tool to detect cis-acting elements near promoter regions in rice”.

The list shows a part of the results.

The target of this test is T1, OsWOX13 (Oryza sativa, UniProt Q5QMM3 1-267).
T1 sequence: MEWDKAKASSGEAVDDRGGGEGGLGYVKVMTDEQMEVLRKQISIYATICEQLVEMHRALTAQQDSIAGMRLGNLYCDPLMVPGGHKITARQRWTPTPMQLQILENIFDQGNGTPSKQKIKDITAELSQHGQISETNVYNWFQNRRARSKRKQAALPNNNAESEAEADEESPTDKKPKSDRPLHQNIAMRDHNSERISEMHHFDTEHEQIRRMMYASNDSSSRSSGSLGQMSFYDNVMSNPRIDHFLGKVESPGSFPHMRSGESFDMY
Description: protein-binding microarray (RPBM); PBS, 2% BSA, 51.3 ng/ul salmon testes DNA, 50 uM zinc acetate, 200 nM TF, 25 C, 1 h; high values mean tight binding. As to conditions: protein: recombinant; tags: N-terminal polyhistidine and DsRed monomer fusion (pET32a); label: CyDye5-dUTP incorporated in the synthesized complementary strand; 3' TTTTT single-stranded linker to array surface; dsDNA, one strand shown. In a few lines: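 A custom Agilent array was converted to double-stranded form by primer extension with Cy5-dUTP and blocked with 2% BSA. Protein at 200 nM in PBS with 2% BSA, salmon testes DNA and 50 µM zinc acetate was applied for 1 h at 25 °C, followed by washing. The proteins were polyhistidine–DsRed N-terminal fusions of transcription factors, expressed in E. coli BL21-CodonPlus and Ni–NTA-purified. The binding signal is per-feature fluorescence intensity (arbitrary units) from an Axon 4000B scanner.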
Turning to “GAATTCCAATCAGAGACACGTCCATGTTCCATCATCGCCCCGGAGTCACCTAGTGCAG”, the binding signal is 8960 fluorescence intensity (a.u.). With “GGTGTGTATGATCTAAACATAATTAATATATTATAACACCCGGAGTCACCTAGTGCAG” the figure was 5340 fluorescence intensity (a.u.).

As for “TGTGATTTTCTTGTGATTGGGATGTATGGTAATGCTAGGGCGGAGTCACCTAGTGCAG”, the binding signal is 48000 fluorescence intensity (a.u.). As for “ATCATGCTCTTTGATTAATTTGATGTCAAGATCGATCGATCGGAGTCACCTAGTGCAG”, the binding signal was 12600 fluorescence intensity (a.u.). In the case of “TATAATTATTAAGTACTCCCTCCGTTCCAAAATATAGTAACGGAGTCACCTAGTGCAG”, the binding signal is 3630 fluorescence intensity (a.u.). For “TTTATGTTAGTGCTAGTGATTAGTACTTAAACATTCAGAGCGGAGTCACCTAGTGCAG” the value was 4670 fluorescence intensity (a.u.); for “ATAGAATTGTAGACTTCAATTTACTGTCGTGACTTTTCCACGGAGTCACCTAGTGCAG”, 3310 fluorescence intensity (a.u.). As to “GTGGGGACTAATTAATTAATGCGGTGATGTGGAGCTGATTCGGAGTCACCTAGTGCAG”, the binding signal was 21800 fluorescence intensity (a.u.). For “AGAGTAATTGCCCACATCGCCCAGTCCCAGACCCAGCTGCCGGAGTCACCTAGTGCAG” the value was 11100 fluorescence intensity (a.u.); for “ATCAATAGATTGGTGCCTCGTTGGATCAAAAGCAAGGCCTCGGAGTCACCTAGTGCAG”, 28900 fluorescence intensity (a.u.); for “ACATGTTAATTATAATATAATAATAGGTTAAATATACACACGGAGTCACCTAGTGCAG”, 25800 fluorescence intensity (a.u.).

For the sequence “AGTAAATTTGTGCCCATTTCACGGTAGTACATCATCTTTCCGGAGTCACCTAGTGCAG”, the binding signal is 9360 fluorescence intensity (a.u.). Take “TTCTGATGATCTGTTGAAACTGATCATAACCCAATACTATCGGAGTCACCTAGTGCAG”: the binding signal was 4040 fluorescence intensity (a.u.). On to “CAATTGATAGTATTATTAATGTTGAAAGTTGATGTGTGTTCGGAGTCACCTAGTGCAG”, for which the binding signal was 9450 fluorescence intensity (a.u.).

With “CAGCCAATCACCAAAATATATTTTGCATTGTGAGGAGGGGCGGAGTCACCTAGTGCAG”, the binding signal is 14100 fluorescence intensity (a.u.). With “ATGTGATAGGGATTTAAAAGTTTTAGTCTCATCTAAACAGCGGAGTCACCTAGTGCAG”, the binding signal was 8680 fluorescence intensity (a.u.).

Consider “TATTGATTAAATTTAATTTATAGATAGACTAATATTTTACCGGAGTCACCTAGTGCAG”, for which the binding signal was 29800 fluorescence intensity (a.u.). With “CCATCATTTGATCAATCGGATGTAGTCGCCAGCTTTAGGACGGAGTCACCTAGTGCAG”, the binding signal is 3220 fluorescence intensity (a.u.). For “TGCATATTGTTATAATCAAGATTATATACAATTTCTCACTCGGAGTCACCTAGTGCAG” the value was 3780 fluorescence intensity (a.u.); for “CCTCCAATTTACCACGCCCTAAACAATATGTGATATTAAGCGGAGTCACCTAGTGCAG”, 4210 fluorescence intensity (a.u.). For “CGCAAATAATTTCAATATATACTATGCAATTCTATACATTCGGAGTCACCTAGTGCAG” the value was 9340 fluorescence intensity (a.u.); for “CGTGTGACAGGCCCATTAGATTAGACCTAGATCTGTCTCGCGGAGTCACCTAGTGCAG”, 25000 fluorescence intensity (a.u.); for “ATATCAATCTATCCCATCGAGTCGGCTGCACTGATCGATTCGGAGTCACCTAGTGCAG”, 9870 fluorescence intensity (a.u.). As for “CACTGCATAATTATTGCCATCTGATCTGAAGCTTCAGGGGCGGAGTCACCTAGTGCAG”, the binding signal was 12300 fluorescence intensity (a.u.). With “GATGGATGGGGTGGGGACTGGGGATGGATGGAGGCGGCGGCGGAGTCACCTAGTGCAG” the figure was 7980 fluorescence intensity (a.u.). For “ATTAACGACTTTTAATTTGAAACGGATTGAGTAGCTAGTTCGGAGTCACCTAGTGCAG” the value was 16100 fluorescence intensity (a.u.); for “GCAGCTGATGTTTGATAGATTAGACGGTGTATAGTGCTGACGGAGTCACCTAGTGCAG”, 12500 fluorescence intensity (a.u.); for “TTGGTTGAAATTGAAACGATGTGACGGAAAAGTTGGAAGTCGGAGTCACCTAGTGCAG”, 3520 fluorescence intensity (a.u.).

In the case of “TATGTTAATTATGCCTAGATTATAGTGTTATAGTATATGGCGGAGTCACCTAGTGCAG”, the binding signal is 32500 fluorescence intensity (a.u.). With “TCTGAATGATATTGCCAGTCTTGGCATGCAGTTACCACCTCGGAGTCACCTAGTGCAG”, the binding signal was 4040 fluorescence intensity (a.u.). For the sequence “AATTAATCACGCGCTAATGGACCGTTCCGTTTTCCGTGCGCGGAGTCACCTAGTGCAG”, the binding signal is 31000 fluorescence intensity (a.u.). For “GCTAGATTGGTGGCGTGATCTTGATGGTCTGCTCACCGCCCGGAGTCACCTAGTGCAG”, the binding signal was 39400 fluorescence intensity (a.u.). With “GGCAGGATTATTACGAGATAGAAACCTTAACCAATACGGTCGGAGTCACCTAGTGCAG” the figure was 3520 fluorescence intensity (a.u.); with “TAAATATAATTGTTTGAAAATAATATAAATAAACACGCTCCGGAGTCACCTAGTGCAG”, 12600 fluorescence intensity (a.u.); with “ATACTAATTATGACACACTGATATATATAACACGGGTATCCGGAGTCACCTAGTGCAG”, 31600 fluorescence intensity (a.u.).

As to “GGTATATTATGATTAAAATCCATGATATATTTTATGTACTCGGAGTCACCTAGTGCAG”, the binding signal was 7040 fluorescence intensity (a.u.). Take “TTGTATAATTTGATCAAGGTCCCTCCCGAACAGTTTCTCTCGGAGTCACCTAGTGCAG”: the binding signal is 11500 fluorescence intensity (a.u.). For “CTGGTAAATTTGCTTGGTCACTGACGGAGTGTACGCAGCACGGAGTCACCTAGTGCAG” the value was 14100 fluorescence intensity (a.u.); for “TCACTTCAATTATTCGCTTTGGATTTATCGCTTCTGGAAACGGAGTCACCTAGTGCAG”, 4700 fluorescence intensity (a.u.). For “CCTTAATTACATTGTATATAGTGATGTATGATTTATTTTACGGAGTCACCTAGTGCAG” the value was 14700 fluorescence intensity (a.u.). With “CCGGTAATCTCACTGTTAATCTCGCGTTTGACTATGTCGCCGGAGTCACCTAGTGCAG”, the binding signal is 6970 fluorescence intensity (a.u.). With “ACCTAATTAACCCGGCCTTAATTTCTTTCTTCTCCACCTCCGGAGTCACCTAGTGCAG” the figure was 38100 fluorescence intensity (a.u.).
